# According to PubChem BioAssay AID1476 (National Center for Advancing Translational Sciences (NCATS), 2009):
# Several values for one entry are separate records, joined by “and”; a condition that tells them apart may be missing. Equal values may be shown once. The whole screen tested about 200,000 compounds, of which about 4,500 (2.2%) were called active. The shares of active, inactive and inconclusive entries below differ from those in the screen. The call rests on the fitted dose curve; in most records, active means well fitted inhibition curve with a large enough effect; inconclusive means small, poorly fitted or top-dose-only effect, or effect the other way; inactive means flat fitted curve, though single readings scatter. Potencies beside an inconclusive call are fits to weak or partial responses and may not hold up.
# Molecular target: Cruzipain (Trypanosoma cruzi) (UniProt P25779)
# Chain of UniProt P25779 (P25779 whole entry, looked up): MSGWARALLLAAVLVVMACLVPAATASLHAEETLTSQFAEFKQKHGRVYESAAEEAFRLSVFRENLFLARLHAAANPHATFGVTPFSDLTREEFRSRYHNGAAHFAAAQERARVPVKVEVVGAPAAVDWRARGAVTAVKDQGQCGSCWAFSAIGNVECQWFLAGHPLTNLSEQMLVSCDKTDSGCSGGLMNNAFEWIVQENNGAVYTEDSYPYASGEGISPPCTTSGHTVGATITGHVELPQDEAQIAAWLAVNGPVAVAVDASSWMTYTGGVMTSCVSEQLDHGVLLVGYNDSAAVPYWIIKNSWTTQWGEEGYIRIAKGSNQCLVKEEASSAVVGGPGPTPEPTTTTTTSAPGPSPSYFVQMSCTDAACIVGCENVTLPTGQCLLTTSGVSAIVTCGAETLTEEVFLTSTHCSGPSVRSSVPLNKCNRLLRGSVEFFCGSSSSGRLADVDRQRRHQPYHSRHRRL
# Experiment: qHTS Assay for Promiscuous and Specific Inhibitors of Cruzain (without detergent); further: nearly all actives have a fitted effect of over 40% in size;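 on max response, negative = inhibition: plate controls were enzyme without inhibitor for no effect and buffer without enzyme for full effect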
# Details: purified cruzain, Z-FR-AMC fluorescence, no detergent
# How it was run: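 Purified cruzain at 1.5 nM, pre-incubated 15 min with compound at room temperature in 100 mM sodium acetate pH 5.5, 5 mM DTT, 0.00005% Triton X-100. Reaction started with 2 uM Z-FR-AMC; AMC fluorescence increase over 60 s gives rate.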
# Potency means the concentration at half of the fitted maximal effect; tags describe the fitted curve by direction and shape.
SMILES,Potency,"max response, negative = inhibition"
CCOc1ccc2c(c1)c1nnc(SCC(=O)N3CCCCC3C)nc1n2C (configuration not stated),"inconclusive: 39.8 µM [activator, single point]",
O=C(CCC(=O)OCc1ccc(C(=O)Oc2ccc(Cl)cc2)cc1)Nc1ccccc1,"inconclusive: 39.8 µM [inhibitor, single point]",
COc1ccc(-c2cc(OC)c3ccccc3n2)cc1,"inconclusive: 39.8 µM [inhibitor, single point]",
O=C(Cc1ccccc1)N(Cc1cccnc1)c1nc2ccc(F)cc2s1,,inactive: -3.82%
Cc1ccc(C(=O)NC(=S)Nc2ccc(NC(=O)c3cccc(Cl)c3)cc2)cc1,"inconclusive: 39.8 µM [inhibitor, single point]",
CCCc1cc2c(=O)c(-c3ccc4c(c3)OCCO4)coc2cc1OC(=O)c1ccco1,"inconclusive: 39.8 µM [inhibitor, single point]",
COc1ccc(-c2c(C)cc3oc(=O)cc(-c4ccccc4)c3c2C)cc1C=O,"inconclusive: 35.5 µM [inhibitor, single point]",
Cc1ccccc1C(=O)Nc1cccc(NC(=S)NC(=O)c2cccs2)c1,"inconclusive: 7.94 µM [inhibitor, full curve, poor fit]",
O=C(O)C1CCCCC1C(=O)N1CC=C(c2ccccc2)CC1 (configuration not stated),,inactive: -9.2%
CC(C)c1cc(-c2nc(-c3ccccc3)no2)n[nH]1,,inactive: 2.2%
O=S(=O)(Nc1nc2ccccc2nc1NCc1ccco1)c1ccc(Cl)cc1,active: 20 µM,
Cc1nn(-c2ccccc2)c(C)c1/C=N/Nc1nc2ccccc2[nH]1,active: 25.1 µM,
COc1cccc(/C=N/NC(=O)c2[nH]c(C)c(C(=O)N/N=C/c3cccc(OC)c3O)c2C)c1O,"inconclusive: 39.8 µM [activator, single point]",
CC(C)c1ccccc1NC(=O)CN1C(=O)c2cccc3cccc1c23,,inactive: 4.12%
Cc1nc(N2CCCC2)c2c(C(=O)N3CCN(c4cccc(C)c4C)CC3)c(C)oc2n1,,inactive: -1.03%
Cc1c(C(=O)NCCC2=CCCCC2)oc2ccc(S(=O)(=O)N3CCC4(CC3)OCCO4)cc12,"inconclusive: 39.8 µM [activator, single point]",
Cc1ccc(NC(=O)C(Cc2ccccc2)N2C(=O)C3C4CCC(C4)C3C2=O)cc1Cl (configuration not stated),"inconclusive: 15.8 µM [inhibitor, partial curve]",
O=C(CCc1ccccc1)n1nc(-c2ccco2)nc1SCc1ccccc1,"inconclusive: 3.16 µM [inhibitor, partial curve]",
Cc1ccc(-n2c(C)cc(/C=N/Nc3ccc([N+](=O)[O-])cn3)c2C)cc1,active: 7.94 µM,
CCOc1ccc(S(=O)(=O)N(CC(=O)N/N=C/c2cccs2)c2ccc(C)cc2)cc1,"inconclusive: 1 µM [inhibitor, full curve]",
CC12CCC(C(=O)N(CSC(=S)N/N=C\c3ccccc3O)C1=O)C2(C)C (configuration not stated),"inconclusive: 20 µM [inhibitor, partial curve, poor fit]",

SMILES,Potency,"max response, negative = inhibition"
COc1ccc(Cl)cc1Nc1nc(-c2sc(NC(=O)c3ccccc3)nc2C)cs1,active: 6.31 µM,
Fc1ccccc1CSc1nc2ncc(Br)cc2[nH]1,"inconclusive: 39.8 µM [inhibitor, single point]",
Cc1ccc(S(=O)(=O)N(C(=O)c2ccncc2)c2ccc(OC(=O)c3ccncc3)cc2)c(C)c1,"inconclusive: 25.1 µM [activator, partial curve]",
CC(=O)c1cc(-c2ccc(F)cc2)n(CCC(=O)Nc2nc3c(C)cccc3s2)c1C,,inactive: -9.94%
CCOc1ccc(C(CCc2ccccc2)NC(=O)c2ccccc2OC)cc1OCC (configuration not stated),"inconclusive: 31.6 µM [activator, single point]",
CSCCC=O,,inactive: -8.22%
COc1ccc(CN(C(=O)CO/N=C/c2ccccc2)c2ccccc2C(=O)O)cc1,"inconclusive: 39.8 µM [activator, single point]",
O=C(c1ccco1)N1CCN(S(=O)(=O)c2ccc(S(=O)(=O)NC3CCCCC3)cc2)CC1,"inconclusive: 25.1 µM [activator, single point]",
CCC(C)NC(=O)c1sc2nc(C)c(C(=O)Nc3ccc(C)cc3C)c(-c3ccc(Cl)cc3)c2c1N (configuration not stated),"inconclusive: 7.94 µM [activator, full curve]",
O=C1COc2cc(S(=O)(=O)CCC(=O)N3CCN(c4cccc(Cl)c4)CC3)c(Cl)cc2N1,,inactive: -29.8%
CCOC(=O)N1CCN(C(=O)CN(c2ccccc2OC)S(=O)(=O)c2ccc(C)cc2)CC1,"inconclusive: 31.6 µM [activator, single point]",
O=C(CSc1nc(N2CCCCC2)nc(N2CCCCC2)n1)N1CCc2ccccc21,"inconclusive: 12.6 µM [inhibitor, partial curve]",
Cc1cccc(C(=O)N2c3ccccc3C(=O)OC2c2ccc3c(c2)OCO3)c1 (configuration not stated),"inconclusive: 39.8 µM [inhibitor, single point]",
Cc1nn(CC(=O)NCCc2ccccc2Cl)c(=O)c2nn(-c3ccccc3)c(C)c12,"inconclusive: 39.8 µM [activator, single point]",
COCCn1c(SCC(=O)Nc2ccc(NC(=O)c3ccco3)c(OC)c2)nc2ccccc2c1=O,"inconclusive: 39.8 µM [activator, single point]",
Cc1ccc(CNc2ccc(-c3nc(-c4ccco4)no3)cc2[N+](=O)[O-])cc1,,inactive: 26%
Cc1cccc(NC(=O)Nc2ccc(C#N)cc2)n1,"inconclusive: 25.1 µM [inhibitor, single point]",
COc1cc(-c2noc(C3CC(=O)N(c4ccc5c(c4)OCCO5)C3)n2)cc(OC)c1OC (configuration not stated),"inconclusive: 39.8 µM [activator, single point]",
CCCCC(CC)COCCCN (configuration not stated),,inactive: -3.09%
CCOc1cc(CNn2cnnc2)cc(Br)c1OCC(=O)NC1CCCCC1,"inconclusive: 39.8 µM [activator, single point]",
CCc1cccc2cc3c(N)c(C(=O)Nc4ccc(S(=O)(=O)N5CCCC5)cc4)sc3nc12,"inconclusive: 39.8 µM [inhibitor, single point]",

SMILES,Potency,"max response, negative = inhibition"
COc1ccc(Cl)cc1NC(=O)CN(c1cc(C)cc(C)c1)S(=O)(=O)c1c(C)n[nH]c1C,"inconclusive: 20 µM [activator, single point]",
CCc1ccc(NC(=O)c2cc3c(=O)n(Cc4cccs4)ccc3nc2C)cc1,"inconclusive: 1 µM [activator, full curve]",
O=C(Cc1ccccc1)N1CCCC(c2nc(-c3ccc(S(=O)(=O)N4CCCC4)cc3)no2)C1 (configuration not stated),"inconclusive: 39.8 µM [activator, single point]",
COc1ccc(C(=O)COC(=O)c2ccc(NC(=O)c3ccccc3)cc2)cc1,active: 12.6 µM,
CN(C)S(=O)(=O)c1cc(NC(=O)CSc2nn(-c3ccc(Cl)cc3)c(=S)s2)ccc1Cl,active: 25.1 µM,
CC1(C)CC(NC(=O)c2cccc3ccccc23)CC(C)(C)N1,"inconclusive: 39.8 µM [inhibitor, single point]",
Cc1cc(NC(=O)c2cnn3c(C(F)(F)F)cc(-c4ccccc4)nc23)no1,"inconclusive: 31.6 µM [activator, single point]",
COC(=O)[C@@]1(Cc2ccc(OC)cc2)[C@@H]2C(=CC(=O)[C@H]2CC(=O)C(=O)N(C)C)CN1C(=O)c1ccccc1,"inconclusive: 25.1 µM [activator, partial curve] and inconclusive: 31.6 µM [activator, partial curve]",
Cc1ccc(Cn2nnnc2CN2CCC(n3nnc4cc(C)ccc43)CC2)cc1,"inconclusive: 31.6 µM [activator, single point]",
CN(C1CCCCC1)S(=O)(=O)c1ccc(S(=O)(=O)N2CCN(C(=O)c3ccccc3F)CC2)cc1,"inconclusive: 39.8 µM [activator, single point]",
COc1ccc(S(=O)(=O)N2CCOC2CNC(=O)C(=O)NCCc2ccc(OC)c(OC)c2)cc1C (configuration not stated),"inconclusive: 39.8 µM [activator, single point]",
COc1ccc(/C=N/OCc2nc3c4c(ncn3n2)Oc2ccc3ccccc3c2C4c2ccccc2)cc1 (configuration not stated),active: 1.58 µM,
Cc1ccc(-c2cn3c(n2)sc2cc(C(=O)NCCCc4ccccc4)ccc23)cc1,"inconclusive: 39.8 µM [activator, single point]",
Cc1ccccc1Cn1cc(NC(=O)c2cc3nc(-c4ccco4)cc(C(F)(F)F)n3n2)cn1,"inconclusive: 20 µM [activator, partial curve]",
COc1ccc(C(=O)Nc2cccc(/C(C)=N/NC(=O)c3ccc([N+](=O)[O-])c(C)c3)c2)cc1OC,"inconclusive: 39.8 µM [activator, single point]",
CCOP(=O)(OCC)C(NC(=O)Nc1cccc(Cl)c1)c1ccccc1 (configuration not stated),"inconclusive: 39.8 µM [activator, single point]",
CNS(=O)(=O)c1cn(CC(=O)Nc2ccc(C)cc2C)cc1S(=O)(=O)NC,,inactive: 18%
Cc1ccc(S(=O)(=O)N(CC(=O)N2CCC(C(N)=O)CC2)c2cccc(C(F)(F)F)c2)cc1,"inconclusive: 31.6 µM [activator, partial curve]",
O=C(c1cccc(F)c1)N1CCC2(CCCN(c3ccccn3)C2)CC1,,inactive: -3.02%
CCOc1ccc(-c2nc3c(C#N)c[nH]n3c2NC2CCCC2)cc1,,inactive: 8.97%
